# Measured values from PubChem BioAssay AID686978 (National Center for Advancing Translational Sciences (NCATS), 2013).
# In all, about 420,000 compounds went through this assay and about 64,000 (15%) were called active. Inconclusive means that the source gave no clear call. Such entries were picked first, then a sample of the others. The call rests on the fitted dose curve; in most records, active means well fitted inhibition curve with a large enough effect; inconclusive means small, poorly fitted or top-dose-only effect; inactive means flat fitted curve, though single readings scatter. Potencies of inconclusive entries are left out as doubtful fits.
# Test: qHTS for Inhibitors of human tyrosyl-DNA phosphodiesterase 1 (TDP1): qHTS in cells in absence of CPT; further: nearly all actives have a fitted effect of over 55% in size
# Conditions: DT40 Tdp1-/- hTDP1 cells, no CPT, ATP luminescence, 48 h; activity change, negative = growth inhibition: at 46.2 µM (top of the series) unless noted
# Summary of the method: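 No-CPT arm: Tdp1-/-;hTDP1 DT40 cells (400/well) plus compounds, incubated ≥48 hr at 37 °C. Readout CellTiter-Glo luminescence.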
# On the % scale 0 is the no-effect control and ±100 the full control effect; potency means the concentration at half of the fitted maximal effect; tags describe the fitted curve by direction and shape.
Structure (SMILES),Potency,"activity change, negative = growth inhibition"
O=C(c1cccs1)c1cn(CC(=O)N2CCc3ccccc3C2)c2ccccc12,"inconclusive [inhibitor, single point]",–
Cc1ccc(Nc2nc(CSc3nnc(-c4ccccc4C)n3C)cs2)cc1,"inconclusive [inhibitor, single point]",–
CNc1nc(-c2cccnc2)nc2ccccc12,"inconclusive [inhibitor, single point]",–
CCOC(=O)C1CCN(C(=O)c2cc3cc(Br)ccc3oc2=O)CC1,inactive,–
COc1ccccc1-c1noc2ncnc(Nc3ccccc3C)c12,active: 14.6 µM,–
CC(O)[C@H]1CNC(=O)C(=O)N1CCc1cc(C(F)(F)F)cc(C(F)(F)F)c1 (stereo partly drawn),inactive,–
CCOC(=O)c1cc(-c2ccc(N3CCOCC3)cc2)nn1-c1ccc(F)cc1F,"inconclusive [inhibitor, single point]",–
CC1CCN(S(=O)(=O)c2ccc(NC(=O)Cc3cccs3)cc2)CC1,"inconclusive [inhibitor, single point]",–
CCn1ccc2cc(S(=O)(=O)N3CCC(C(=O)NCC(C)c4ccccc4)CC3)ccc21 (stereo not drawn),"inconclusive [inhibitor, single point]",–
COc1ccc(S(=O)(=O)Nc2cc(-c3cn4ccc(C)cc4n3)ccc2C)cc1OC,active: 16.4 µM,–
Cc1nnc2c3ccccc3nc(Nc3ccccc3C(=O)O)n12,"inconclusive [inhibitor, single point]",–
O=C(CNS(=O)(=O)c1ccccc1)OCc1cccc([N+](=O)[O-])c1,inactive,–
O=C(COC(=O)Cc1c(Cl)cccc1Cl)NCc1ccccc1,"inconclusive [inhibitor, partial curve]",–
CCCNC(=O)N1c2ccccc2Sc2ccccc21,"inconclusive [inhibitor, single point]",–
CCOc1ccc(C(=O)NC2CC(=O)N(c3ccc4c(c3)OCCO4)C2)cc1 (stereo not drawn),inactive,–
O=C(CSc1nnc(Nc2ccccc2F)s1)NCc1ccco1,inactive,–
CC1Cc2ccccc2N1S(=O)(=O)c1c(N)n(C)c(=O)n(C)c1=O (stereo not drawn),inactive,–
COc1cccc(CNC(=O)C2CCN(Cc3cc4ccccc4n3Cc3ccccc3)CC2)c1OC,"inconclusive [inhibitor, single point]",–
Cc1ccc(Cl)cc1NC(=O)c1nnn(Cc2ccccc2)c1N,"inconclusive [inhibitor, single point]",–
Cc1cccc(N(CC(=O)N2CCOCC2)S(C)(=O)=O)c1,inactive,–
Cc1ccc(NC(=O)c2ccco2)cc1C,"inconclusive [inhibitor, single point]",–
CCOC(=O)/C(=C\Nc1ccccc1C(F)(F)F)Sc1ncc(C(F)(F)F)cc1Cl,"inconclusive [inhibitor, single point]",–
Cc1ccc(NC(=O)CSc2nc3ccccc3nc2Cc2ccccc2)c(Cl)c1,"inconclusive [inhibitor, partial curve]",–
Cc1ccc(S(=O)(=O)N2CCN(c3ccnc4cc(Cl)ccc34)CC2)cc1,active: 23.1 µM,–

Structure (SMILES),Potency,"activity change, negative = growth inhibition"
Fc1ccc(Cn2c(-c3cscn3)nc3ccccc32)c(Cl)c1,"inconclusive [inhibitor, single point]",–
O=C1CCCN2N=C(SCC(=O)Nc3ccc(OC(F)(F)F)cc3)SC2=N1,"inconclusive [inhibitor, partial curve]",–
C=CCN1C=CC(=O)CC1,inactive,–
CCOC(=O)c1c(NC(=O)CC)sc2c1CCN(Cc1ccccc1)C2,"inconclusive [inhibitor, single point]",–
CC(Oc1ccccc1)C(=O)N1CCN=C1SCc1ccc(F)cc1 (stereo not drawn),inactive,–
Cc1ccc(NC(=O)C2(C)CCN2C(=O)CCC2CCCC2)cc1C (stereo not drawn),"inconclusive [inhibitor, single point]",–
CCOC(=O)/C(=C/c1ccc(OC)cc1)NC(=O)c1ccco1,inactive,–
O=C(CN1CCN(Cc2ccccc2)CC1)N/N=C/C=C/c1ccco1,"inconclusive [inhibitor, single point]",–
CSc1ccccc1OCc1cc(C(=O)N2CCC[C@H]2C(N)=O)no1,inactive,–
COc1ccc(C)cc1NS(=O)(=O)c1ccc2c(c1)N(C)CCO2,active: 14.6 µM,–
CN(C)NC1=CC(=[N+]2CCCC2)CC(C)(C)C1,"inconclusive [inhibitor, single point]",–
CCOC(=O)c1cccc(NC(=O)CSc2cc(=O)n(C)c3ccccc23)c1,"inconclusive [inhibitor, single point]",–
CCN1CCN(c2nc3c(C)cccn3c(=O)c2/C=C(\C#N)C(=O)NCCOC)CC1,inactive,–
COc1cccc(C(=O)O/N=C(\N)Cc2ccc(Cl)cc2)c1,"inconclusive [inhibitor, single point]",–
O=C(OCC(=O)N1N=C(c2ccc(Cl)cc2)CC1c1ccco1)c1cncc(Br)c1 (stereo not drawn),active: 23.1 µM,–
COc1ccc(CCNC(=O)COC(=O)c2cc(Cl)nc(Cl)c2)cc1,inactive,–
O=C(CCCCC(=O)Nc1ccccc1Cl)Nc1ccccc1Cl,inactive,–
Cc1ccc(CN2c3ccccc3-c3nc(SCC(=O)NCCc4ccccc4)ncc3S2(=O)=O)cc1,"inconclusive [inhibitor, partial curve]",–
CCCN1CNc2c(c(=O)[nH]c(=S)n2CCc2c(Cl)cccc2Cl)C1,active: 12.6 µM,–
C=CCn1c(SCC(=O)O)nnc1-c1cccc(Cl)c1,–,inconclusive: -32% [inhibitor]
Cc1ccsc1C(=O)N1CCCC(C)(C(=O)NS(=O)(=O)C2CC2)C1 (stereo not drawn),"inconclusive [inhibitor, full curve, poor fit]",–
O=C(Nc1ccncc1)C1CCCN(S(=O)(=O)c2cccc3cccnc23)C1 (stereo not drawn),active: 1.64 µM,–
COc1cc2ccccc2cc1C(=O)Nc1ccc(N2CCOCC2)cc1,"inconclusive [inhibitor, single point]",–
O=[N+]([O-])c1ccccc1/C=C/c1ccc2ccccc2n1,"inconclusive [inhibitor, single point]",–
